± gives the standard deviation of the averaged measurements. Restriction of a single-cycle SIVsab GFP reporter by TRIM5α v1-loop variants in CRFK cells. Human variants: read share among cells still uninfected after two challenges over input, higher = gained restriction. Rhesus variants: share among infected cells over input, higher = lost restriction. Reporter dose not given per row. No active / inactive call per row; the paper calls a change when both replicates lie above its controls (mean + 2 SD of stop or wild-type variants, or the top frameshift score). Residues outside the varied loop are taken from Swiss-Prot. The paper reads the human single-substitution scores as noise; they and the rhesus combinations repeat poorly (rank correlation 0.3 to 0.4), indel scores repeat only for the top variants, rhesus substitutions well (0.9).
Tested on: SIVsab (simian immunodeficiency virus of sabaeus monkeys), single-cycle GFP reporter, in CRFK cells
Experiment: enrichment among uninfected cells over input (fold); higher = stronger restriction
Description: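 Pools of CRFK cells expressing variants of the TRIM5α v1 loop were challenged with the single-cycle reporter, sorted by GFP and sequenced; mean of two replicates.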

[1] = library: insertions and deletions

Sequence	enrichment [1]	enrichment (library: human / rhesus combinations)
MASGILVNVKEEVTCPICLELLTQPLSLDCGHSFCQACLTANHKKSMLDKGESSCPVCRISYQPENIRPNRHVANIVEKLREVKLSPEGQKVDHCARHGEKLLLFCQEDGKVICWLCERSQEHRGHHTFLTEEVAREYQVKLQAALEMLRQKQQEAEELEADIREEKASWKTQIQYDKTNVLADFEQLRDILDWEESNELQNLEKEEEDILKSLTNSETEMVQQTQSLRELISDLEHRLQGSVMELLQGVDGVIKRTENVTLKKPETFPKNQRRVFRAPDLKGMLEVFRELTDVRRYWVDVTVAPNNISCAVISEDKRQVSSPKPQIIYGARGTRYQTFVNFNYGSQSITSGKHYWEVDVSKKTAWILGVCAGFQPDAMCNIEKNENYQPKYGYWVIGLEEGVKCSAFQDSSFHTPSVPFIVPLSVIICPDRVGVFLDYEACTVSFFNITNHGFLIYKFSHCSFSQPVFPYLNPRKCGVPMTLCSPSS [human TRIM5α, 5-codon deletion at 345]	0.678 ± 0.31	–
MASGILVNVKEEVTCPICLELLTQPLSLDCGHSFCQACLTANHKKSMLDKGESSCPVCRISYQPENIRPNRHVANIVEKLREVKLSPEGQKVDHCARHGEKLLLFCQEDGKVICWLCERSQEHRGHHTFLTEEVAREYQVKLQAALEMLRQKQQEAEELEADIREEKASWKTQIQYDKTNVLADFEQLRDILDWEESNELQNLEKEEEDILKSLTNSETEMVQQTQSLRELISDLEHRLQGSVMELLQGVDGVIKRTENVTLKKPETFPKNQRRVFRAPDLKGMLEVFRELTDVRRYWVDVTVAPNNISCAVISEDKRQVSSPKPQIIKPQIIYGARGTRYQTFVNFNYCTGILGSQSITSGKHYWEVDVSKKTAWILGVCAGFQPDAMCNIEKNENYQPKYGYWVIGLEEGVKCSAFQDSSFHTPSVPFIVPLSVIICPDRVGVFLDYEACTVSFFNITNHGFLIYKFSHCSFSQPVFPYLNPRKCGVPMTLCSPSS [human TRIM5α, 5-codon duplication at 324]	0.781 ± 0.25	–
MASGILVNVKEEVTCPICLELLTQPLSLDCGHSFCQACLTANHKKSMLDKGESSCPVCRISYQPENIRPNRHVANIVEKLREVKLSPEGQKVDHCARHGEKLLLFCQEDGKVICWLCERSQEHRGHHTFLTEEVAREYQVKLQAALEMLRQKQQEAEELEADIREEKASWKTQIQYDKTNVLADFEQLRDILDWEESNELQNLEKEEEDILKSLTNSETEMVQQTQSLRELISDLEHRLQGSVMELLQGVDGVIKRTENVTLKKPETFPKNQRRVFRAPDLKGMLEVFRELTDVRRYWVDVTVAPNNISCAVISEDKRQVSSPKPQIIYQAPGTRFTFQTFVNFNYCTGILGSQSITSGKHYWEVDVSKKTAWILGVCAGFQPDAMCNIEKNENYQPKYGYWVIGLEEGVKCSAFQDSSFHTPSVPFIVPLSVIICPDRVGVFLDYEACTVSFFNITNHGFLIYKFSHCSFSQPVFPYLNPRKCGVPMTLCSPSS [human TRIM5α, 330-340 = QAPGTRFTFQTFV]	–	0.292 ± 0.19
MASGILVNVKEEVTCPICLELLTQPLSLDCGHSFCQACLTANHKKSMLDKGESSCPVCRISYQPENIRPNRHVANIVEKLREVKLSPEGQKVDHCARHGEKLLLFCQEDGKVICWLCERSQEHRGHHTFLTEEVAREYQVKLQAALEMLRQKQQEAEELEADIREEKASWKTQIQYDKTNVLADFEQLRDILDWEESNELQNLEKEEEDILKSLTNSETEMVQQTQSLRELISDLEHRLQGSVMELLQGVDGVIKRTENVTLKKPETFPKNQRRVFRAPDLKGMLEVFRELTDVRRYWVDVTVAPNNISCAVISEDKRQVSSPKPQIIYGARGRGTRYQTFVNFNYCTGILGSQSITSGKHYWEVDVSKKTAWILGVCAGFQPDAMCNIEKNENYQPKYGYWVIGLEEGVKCSAFQDSSFHTPSVPFIVPLSVIICPDRVGVFLDYEACTVSFFNITNHGFLIYKFSHCSFSQPVFPYLNPRKCGVPMTLCSPSS [human TRIM5α, 2-codon duplication at 332]	0.203 ± 0.11	–

— the supplement of paper PMC12230231
